{"source": "PubChem BioAssay AID686979", "about": "(National Center for Advancing Translational Sciences (NCATS), 2013)", "note": "In all, about 420,000 compounds went through this assay and about 50,000 (12%) were called active. Inconclusive results, whose numbers are uncertain, are shown with a selection of clear calls. Calls come from the whole dose curve; as a rule, active = well fitted inhibition curve with a large enough effect; inconclusive = small, poorly fitted or top-dose-only effect; inactive = flat fitted curve, though single readings scatter. No potency is given beside an inconclusive call; the fits are too rough. % is set by controls: 0 for no effect and ±100 for the full control effect; potency is the fitted concentration of half-maximal effect; tags give direction and shape of the fitted curve.", "data": [{"assay": "qHTS for Inhibitors of human tyrosyl-DNA phosphodiesterase 1 (TDP1): qHTS in cells in presence of CPT; note: nearly all actives have a fitted effect of over 55% in size", "settings": "chicken DT40 Tdp1-/-;hTDP1 cells + 20 nM CPT, ATP luminescence, 48 h; activity change, negative = growth inhibition: at 46.2 µM (top of the series) unless noted", "procedure,_shortened": "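Chicken DT40 Tdp1-/- cells complemented with human TDP1, 400 cells/well, exposed to compounds plus 20 nM camptothecin for at least 48 h at 37 C; viability read as ATP content by CellTiter-Glo luminescence.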", "values": [{"smiles": "Cc1cc(C)cc(NC(=O)N2CCC(c3nc4ccccc4o3)CC2)c1", "Potency": "inconclusive [inhibitor, single point]"}, {"smiles": "Cc1nn2c(=O)cc(COc3ccc(/C=C(\\C#N)C(=O)Nc4ccccc4)cc3Cl)nc2s1", "activity change, negative = growth inhibition": "inactive: -10.1%"}, {"smiles": "COc1ccc(C(C#N)=Cc2cccc(OC)c2OC)cc1", "Potency": "inconclusive [inhibitor, single point]"}, {"smiles": "CCOc1ccc(NC(=S)N2CCC(C(=O)c3ccc(OC)cc3)CC2)cc1", "Potency": "active: 16.4 µM"}, {"smiles": "CCN1CCCC1CNc1ncnc2c1[nH]c1ccc(Cl)cc12", "note": "(stereo unspecified)", "Potency": "inconclusive [inhibitor, single point]"}, {"smiles": "O=C(Nc1ccc(NC(=O)C2CCCN2C(=O)OCc2ccccc2)cc1)c1ccco1", "note": "(stereo unspecified)", "activity change, negative = growth inhibition": "inactive: -16.4%"}, {"smiles": "Brc1ccc2c(c1)NC(c1cccnc1)=NC(c1ccccc1)=N2", "Potency": "inconclusive [inhibitor, single point]"}, {"smiles": "COC(=O)c1ccc(-c2noc(CN(Cc3nccn3C)C(C)C)n2)cc1", "Potency": "active: 13 µM"}, {"smiles": "CCc1ccc(NC(=O)CSc2nc(=O)n(CCN(C)C)c3c2CCCC3)cc1", "Potency": "inconclusive [inhibitor, single point]"}, {"smiles": "O=c1oc2ccccc2cc1-c1nc2c(s1)CCCC2", "Potency": "inconclusive [inhibitor, single point]"}, {"smiles": "O=C(CSc1nc2ccccc2[nH]1)c1ccc(Cl)s1", "activity change, negative = growth inhibition": "inactive: -2.44%"}, {"smiles": "COc1cc(CNCc2ccccc2C(F)(F)F)cc(OC)c1", "Potency": "inconclusive [inhibitor, single point]"}, {"smiles": "O=[N+]([O-])c1cccc(S(=O)(=O)Nc2ccc(S(=O)(=O)Nc3nccs3)cc2)c1", "activity change, negative = growth inhibition": "inactive: -7.62%"}, {"smiles": "Cc1ccc(Cn2nnc3c(=O)n(CC(=O)NCc4ccc5c(c4)OCO5)cnc32)cc1", "Potency": "inconclusive [inhibitor, single point]"}, {"smiles": "Clc1ccc(-c2csc(-c3ccncc3)n2)cc1", "activity change, negative = growth inhibition": "inactive: 5.47%"}, {"smiles": "CCc1cccc(C)c1Nc1c(-c2cccs2)nc2nc(C)cc(C)n12", "Potency": "inconclusive [inhibitor, single point]"}, {"smiles": "COc1ccc(-c2cc3nc(C)cc(N4CC(C)CC(C)C4)n3n2)cc1", "note": "(stereo unspecified)", "Potency": "inconclusive [inhibitor, partial curve, poor fit]"}, {"smiles": "CCc1nc(N2CCC(C)CC2)c2oc3ccccc3c2n1", "Potency": "inconclusive [inhibitor, single point]"}, {"smiles": "CN(C[C@H](Cc1ccccc1)N(C[C@H](CC1CCCCC1)N(CCc1ccccc1)N=O)N=O)N=O", "Potency": "active: 25.9 µM"}, {"smiles": "CNS(=O)(=O)c1cnccc1N1CCN(c2cccc(C(F)(F)F)c2)CC1", "Potency": "inconclusive [inhibitor, single point]"}, {"smiles": "COC(=O)c1ccccc1NC(=O)c1cc(CN2CCOCC2)on1", "activity change, negative = growth inhibition": "inactive: 5.43%"}, {"smiles": "COc1ccc(NC(=O)C2CCCN2S(=O)(=O)c2ccc3c(c2)CCC(=O)N3)c(OC)c1", "note": "(stereo unspecified)", "Potency": "active: 13 µM"}, {"smiles": "COC(=O)c1ccc(COc2ccccc2/C=C(\\C#N)C(=O)Nc2c(C)cc(C)cc2C)cc1", "Potency": "active: 8.2 µM"}, {"smiles": "CC(C)OC(=O)c1ccc(NCc2cc(O)ccc2O)cc1Cl", "Potency": "active: 2.91 µM"}, {"smiles": "CC1(C)NC(=O)N(CC(=O)N2CCN(c3cccc(Cl)c3)CC2)C1=O", "Potency": "inconclusive [inhibitor, single point]"}, {"smiles": "CCOC(=O)c1cc(-c2ccccc2)sc1NC(=O)COC(=O)c1cccc(S(N)(=O)=O)c1", "Potency": "inconclusive [inhibitor, full curve]"}, {"smiles": "COc1ccc(C(C)=O)cc1CSc1nnc(Nc2ccccc2C)s1", "Potency": "inconclusive [inhibitor, single point]"}, {"smiles": "Cc1ccc(CNc2ncnc3onc(C)c23)cc1", "Potency": "active: 16.4 µM"}, {"smiles": "CCN(CC)c1ccc(NC(=O)CCS(=O)(=O)c2ccc3c(c2)oc(=O)n3C)c(C)c1", "Potency": "inconclusive [inhibitor, single point]"}, {"smiles": "Cc1ccc(NC(=O)Cn2c(=O)oc3cc(S(=O)(=O)N4CCCCC4)ccc32)c(C)c1", "Potency": "active: 6.51 µM"}, {"smiles": "COc1ccccc1N1CCN(C2CCN(S(=O)(=O)c3ccc4ccccc4c3)CC2)CC1", "Potency": "inconclusive [inhibitor, single point]"}, {"smiles": "COc1cc(CCC(=O)OCC(=O)Nc2ccc(F)cc2F)cc(OC)c1OC", "activity change, negative = growth inhibition": "inactive: -5.03%"}, {"smiles": "COc1ccc(-c2cc3nc(C)c(CCC(=O)N4CCN(c5ccccc5F)CC4)c(C)n3n2)c(OC)c1", "Potency": "inconclusive [inhibitor, single point]"}, {"smiles": "O=C(CSc1nc2ccccc2nc1Cc1ccccc1F)Nc1cccc(C(F)(F)F)c1", "activity change, negative = growth inhibition": "inactive: -7.06%"}, {"smiles": "COc1ccc(-c2cc(C(F)(F)F)nc(SCC(=O)NCc3cccs3)n2)cc1OC", "Potency": "inconclusive [inhibitor, partial curve]"}, {"smiles": "COCc1ccc(CN2CCCC(CO)(Cc3ccccc3)C2)o1", "note": "(stereo unspecified)", "activity change, negative = growth inhibition": "inactive: -4.14%"}]}]}
